# Data published in the supplement of paper PMC12217912.
# Some of the results follow. Sequences were assembled here from the parent chain. Inactive controls read about 0.05.
# B1: TEV protease; numbered along this chain (parent)
# chain: MGESLFKGPRDYNPISSSICHLTNESDGHTTSLYGIGFGPFIITNKHLFRRNNGTLVVQSLHGVFKVKDTTTLQQHLVDGRDMIIIRMPKDFPPFPQKLKFREPQREERICLVTTNFQTKSMSSMVSDTSCTFPSGDGIFWKHWIQTKDGQCGSPLVSTRDGFIVGIHSASNFTNTNNYFTSVPKNFMELLTNQEAQQWVSGWRLNADSVLWGGHKVFMVKPEEPFQPVKEATQL
# Variants of: B1
# Assay: raw area under fraction-flipped curve 0-4 h after induction (AUC4h, not background-subtracted), DNA-recorder readout of cleavage of the substrate (dimensionless); higher = more cleavage of the substrate by the protease variant
# Conditions: temperature: 34 °C; time window: 0-4 h after rhamnose induction
# Experimental: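 In vivo DNA recorder in E. coli TOP10(DE3) ΔrhaA at 34 °C. Each TEVp single-site mutant (parent TEVp 0) is paired with a single-site variant of the 7-mer TEVs (canonical ENLYFQ|S). The substrate sits between flexible linkers in a Bxb1-sfGFP-TEVs-SsrA fusion, so cleavage stabilises Bxb1 and speeds flipping of a recombination array, read by NGS. The value is the raw area under the fraction-flipped curve over 0-4 h after rhamnose induction (AUC4h), with ≥20 reads per time point. It is not background-subtracted; inactive controls average about 0.047.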
# 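Also: Bxb1 expression induced with 0.2% (w/v) L-rhamnose at OD600 near 0.5, cultures sampled hourly, flipped fraction per protease–substrate barcode pair counted by paired-end Illumina sequencing.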
Variant,area with substrate EALYFQS,area with substrate ECLYFQS,area with substrate EELYFQS,area with substrate EFLYFQS,area with substrate EGLYFQS,area with substrate EHLYFQS,area with substrate EILYFQS,area with substrate EKLYFQS,area with substrate ELLYFQS,area with substrate EMLYFQS,area with substrate EPLYFQS,area with substrate EQLYFQS,area with substrate ERLYFQS,area with substrate ESLYFQS,area with substrate EVLYFQS,area with substrate EWLYFQS,area with substrate EYLYFQS,area with substrate EDLYFQS,area with substrate ETLYFQS
S171P,0.0518,0.0512,0.0552,0.0583,0.0469,0.0581,0.0576,0.063,0.087,0.054,0.0428,0.0588,0.053,0.0575,0.0655,0.0611,0.0648,,
F173G,0.0461,0.0734,,,0.071,,0.0871,,0.0893,0.0752,,,0.0664,0.0797,,,,,
F173Q,0.0994,0.0616,,,,,,,,,,0.093,0.0667,0.103,0.0802,,0.0898,,
F173W,0.102,0.0965,0.0989,0.108,,,0.0912,0.104,0.0911,0.098,0.118,0.0989,,0.0924,0.0881,0.0841,0.103,0.116,
N175V,0.0671,0.0563,0.0648,0.0539,0.0579,0.0606,0.0681,0.0649,,0.0705,,0.0667,0.0729,0.0701,0.0758,0.0907,0.0628,0.0605,0.0562
N178F,0.193,0.189,,,0.208,,,0.169,,,0.227,,,0.184,0.212,,,,
N178T,0.0489,0.063,0.0795,,,0.121,0.0749,0.0525,,0.0682,,,0.0681,0.0733,0.0688,0.0694,0.0743,0.101,0.0777
F180R,0.0459,0.056,0.0448,0.0673,,0.0604,,,,,,0.0435,0.0604,0.0688,,,0.0535,0.0544,
T181R,0.051,0.0498,0.0539,,0.0622,0.0199,,0.0558,,0.0532,,0.0502,0.0583,0.056,0.0476,0.0349,0.0578,0.0527,
T181S,0.076,0.124,,,0.0971,,0.107,,,,,0.162,0.119,0.12,0.114,,0.0825,0.146,
S182Q,0.0943,0.0774,0.0858,0.107,0.0476,,0.1,0.0985,0.126,0.102,0.116,0.0932,,0.0805,0.0849,0.09,0.106,0.119,
V183S,0.101,0.0899,0.0701,,,,0.0783,0.113,0.09,,,0.0867,,0.0872,0.0821,0.0778,,,
P184D,0.0918,0.0408,,,,,,0.0771,0.0694,0.0867,,0.0959,,0.0717,0.0893,,,,
P184T,0.12,0.0962,0.118,,0.0725,,0.0901,,0.0783,,0.147,,,0.0871,0.0826,,0.0833,,0.0974
